{"source": "PubChem BioAssay AID1347120", "about": "(National Center for Advancing Translational Sciences (NCATS), 2019)", "note": "Screen size: about 390,000 compounds; about 930 (0.24%) were called active. The inconclusive results got no clear call from the source; some entries with a clear call stand among them for comparison. Calls come from the whole dose curve; as a rule, active = well fitted activation curve with a large enough effect; inconclusive = small, poorly fitted or top-dose-only effect; inactive = no such curve, though single readings can be large or run the other way. Potencies beside an inconclusive call are fits to weak or partial responses and may not hold up. Potency is the fitted concentration of half-maximal effect; tags give direction and shape of the fitted curve."}
{"experiment": "qHTS for Suppressors of FUS Proteinopathy: Primary screen using FUS-linked yeast assay; note: nearly all actives have a fitted effect of over 55% in size;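 for growth rescue (activation): plate controls were DMSO vehicle for no effect and reference control for full effect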", "conditions": "S. cerevisiae FUS-expressing, OD600, 24 h; Potency: growth rescue; growth rescue (activation): at 76.6 µM (top of the series)", "outline": "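Read-out: OD at 600 nm after 24hr at 30C, reporting rescue of FUS-induced yeast toxicity. Cells at OD 0.005 in galactose (2%) minimal medium; compounds tested in a dilution series; CP55940 titration from 92uM final as control.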"}
{"smiles": "CCCCCCCCN1C(=O)[C@@H](CC(=O)N2CCN(C(=O)c3ccco3)CC2)C[C@@]2(C(=O)OC)C1=C[C@H](C(C)C)O[C@@H]2C1CC1", "Potency": "inconclusive: 17.8 µM [activator, partial curve, poor fit]"}
{"smiles": "c1ccc2oc(C3=NNC(=NC4CC4)SC3)cc2c1", "Potency": "inconclusive: 20 µM [activator, partial curve, poor fit]"}
{"smiles": "CCN(CC)S(=O)(=O)c1cccc(NC(=O)C2SC(=Nc3ccc(C)cc3C)C(C(=O)NC(C)COC)=C2N)c1", "note": "(centres undefined)", "Potency": "inconclusive: 12.6 µM [activator, partial curve, poor fit]"}
{"smiles": "COc1ccc(Cn2c(C)ccc2C)cc1", "Potency": "inconclusive: 6.31 µM [activator, partial curve, poor fit]"}
{"smiles": "CCOc1ccc(CCNC(=O)c2cc(-c3ccccc3)c(N3CCOCC3)s2)cc1", "Potency": "inactive"}
{"smiles": "COc1ccc(C)cc1S(=O)(=O)NCC(c1ccc(N(C)C)cc1)N1CCc2ccccc21", "note": "(centres undefined)", "Potency": "inconclusive: 35.5 µM [activator, single point]"}
{"smiles": "COc1ccc(N2CCN(C(=O)c3cc4cc5ccc(Cl)cc5nc4o3)CC2)cc1", "Potency": "inactive"}
{"smiles": "CCN(CC)C(=O)C1=C(C)N(Cc2ccc(F)cc2)C(=O)C(CC(=O)NC(c2ccccc2)c2ccccc2)C1", "note": "(centres undefined)", "Potency": "inconclusive: 22.4 µM [activator, single point]"}
{"smiles": "CN(c1ccccc1)c1ncnc2c1cnn2C", "Potency": "inactive"}
{"smiles": "O=C1C(Cc2ccccc2)Nc2ncnc(N3CCc4ccccc4C3)c2N1Cc1ccc(Cl)cc1", "note": "(centres undefined)", "Potency": "inconclusive: 28.2 µM [activator, partial curve, poor fit]"}
{"smiles": "CN(C(=O)COC(=O)c1cc(-c2ccco2)nc2ccccc12)C1CCS(=O)(=O)C1", "note": "(centres undefined)", "Potency": "inconclusive: 10 µM [activator, partial curve, poor fit]"}
{"smiles": "Cc1ccccc1-c1cccc([C@@H]2C[C@H]3[C@H](CON3C)CN2C(=O)CCc2ccccc2)c1", "Potency": "inconclusive: 22.4 µM [activator, single point]"}
{"smiles": "CCC(=O)Nc1ccccc1-c1nc2ccccc2n(C(C)C(=O)Nc2ccc(OC)cc2)c1=O", "note": "(centres undefined)", "Potency": "inconclusive: 28.2 µM [activator, single point]"}
{"smiles": "O=[N+]([O-])c1ccc(-c2ccc(/C=N/O)o2)cc1", "Potency": "inactive"}
{"smiles": "COc1ccc(CCNC(=O)CCc2c(C)c3cc4c(C)coc4cc3oc2=O)cc1", "Potency": "inactive"}
{"smiles": "O=C(Nc1ccc(S(=O)(=O)N2CCCCC2)cc1)c1ccc(CN2CCOCC2)cc1", "growth rescue (activation)": "inconclusive: -53.2% [activator]"}
{"smiles": "Nc1c(N)c2ccccc2oc1=O", "Potency": "inactive"}
{"smiles": "S=c1[nH]c(-c2ccccc2)cn1/N=C/c1cccnc1", "Potency": "inactive"}
{"smiles": "Cc1ccc(C)c(N2CCN(C(=O)c3cc4sccc4n3C)CC2)c1", "Potency": "inconclusive: 25.1 µM [activator, partial curve, poor fit]"}
{"smiles": "Nn1c(SCC(=O)Nc2ccc(OCc3ccccc3)cc2)nnc1-c1cc(-c2ccccc2)n[nH]1", "Potency": "inactive"}
{"smiles": "Cc1ccc(-c2ccnc3nc(-n4cccc4)nn23)o1", "Potency": "inactive"}
{"smiles": "CC(C)(C)NC(=O)NC(=O)COC(=O)c1nc(-c2ccccc2)n(-c2cccc(C(F)(F)F)c2)n1", "Potency": "inconclusive: 14.1 µM [activator, partial curve, poor fit]"}
{"smiles": "CC(=O)c1cccc(Nc2nc(-c3ccccc3)cs2)c1", "Potency": "inactive"}
{"smiles": "COc1ccc(C2C3=C(N=C4SCC(=O)N42)c2ccccc2CC3)cc1", "note": "(centres undefined)", "Potency": "inconclusive: 28.2 µM [activator, partial curve, poor fit]"}
{"smiles": "CC(=O)Nc1ccc(S(=O)(=O)Nc2nc3ccccc3nc2Nc2ccc(N)cc2)cc1", "Potency": "inconclusive: 50.1 µM [activator, single point]"}
{"smiles": "CN(Cc1ccccc1)C(=O)c1ccc(NC(=O)Cc2cccc(NC(=O)C3CCCN(C(=O)C4CCCC4)C3)c2)cc1", "note": "(centres undefined)", "Potency": "inconclusive: 31.6 µM [activator, single point]"}
{"smiles": "CCOC(=O)[C@]12CCCC=C1N(Cc1ccc(OC)cc1)C(=O)[C@@H]2CC(=O)NCCc1ccccc1OC", "Potency": "inconclusive: 20 µM [activator, single point]"}
{"smiles": "COc1ccccc1NC(=O)CSc1ccc2nnc(-c3ccc(C)cc3)n2n1", "Potency": "inconclusive: 15.8 µM [activator, partial curve]"}
{"smiles": "CC12CCC(c3c(C(=O)Nc4nccs4)nn(-c4ccccc4)c31)C2(C)C", "note": "(centres undefined)", "Potency": "inconclusive: 17.8 µM [activator, partial curve]"}
{"smiles": "Cc1nnc2sc(-c3csc4c3CCCC4)nn12", "growth rescue (activation)": "inconclusive: 70.1% [activator]"}
{"smiles": "Cc1ccc(NC(=O)Nc2ncccc2C)cc1", "Potency": "inactive"}
{"smiles": "CCOc1cc(C2C(C(=O)c3ccco3)=C(O)C(=O)N2Cc2ccccc2)ccc1O", "note": "(centres undefined)", "Potency": "inactive"}
{"smiles": "Cc1cc(C)cc(NC(=S)/C(=C(\\[O-])c2ccc(Cl)s2)[n+]2cccc(C)c2)c1", "Potency": "inconclusive: 50.1 µM [activator, single point]"}
{"smiles": "O=C(Nc1ccccc1Cl)c1cc(C2CCCN(C(=O)c3cccs3)C2)on1", "note": "(centres undefined)", "Potency": "inconclusive: 28.2 µM [activator, single point]"}
{"smiles": "Cc1ccc(OCc2nnc(SCC(=O)CC(=O)Nc3ccccc3)o2)cc1", "Potency": "inconclusive: 15.8 µM [activator, partial curve, poor fit]"}
{"smiles": "O=C(Cc1ccccc1)Nc1ccc(NC(=O)Cc2ccccc2)c(Cl)c1", "Potency": "inactive"}
{"smiles": "COc1ccccc1N(C)S(=O)(=O)c1ccc(C(=O)N2CCCc3ccccc32)cc1", "Potency": "inconclusive: 31.6 µM [activator, partial curve]"}
{"smiles": "Cn1c(=O)c2c(ncn2CC(COCc2ccc(Cl)cc2)OCc2ccc(Cl)cc2)n(C)c1=O", "note": "(centres undefined)", "Potency": "inconclusive: 31.6 µM [activator, single point]"}
{"smiles": "CCCOc1cccc(-c2cc(-c3n[nH]c(=S)n3CC)c3ccccc3n2)c1", "Potency": "inconclusive: 25.1 µM [activator, partial curve, poor fit]"}
{"smiles": "O=C(Nc1ccc(N2CCOCC2)c(S(=O)(=O)Nc2ccc(Cl)cc2)c1)c1cnccn1", "Potency": "inconclusive: 31.6 µM [activator, single point]"}
{"smiles": "Cc1ccc(C)c(NC(=O)NNC(=O)c2cc3occc3[nH]2)c1", "Potency": "inactive"}
{"smiles": "O=C(NCc1ccccc1Cl)C1CCCN(c2ncnc3onc(-c4ccc(F)cc4)c23)C1", "note": "(centres undefined)", "Potency": "inconclusive: 28.2 µM [activator, single point]"}
{"smiles": "C[C@H]1COc2cc(Br)ccc2S(=O)(=O)N1Cc1cn(Cc2ccccc2)nn1", "Potency": "inactive"}
{"smiles": "CCN(CC)c1ccc(/C=C/c2cc(-c3ccccc3)c3ccccc3n2)cc1", "Potency": "inconclusive: 39.8 µM [activator, partial curve, poor fit]"}
{"smiles": "CC(=O)N(Cc1ccccc1)c1nc(-c2ccccc2)cs1", "Potency": "inconclusive: 22.4 µM [activator, partial curve]"}
{"smiles": "COc1cc(/C=C/C(=O)c2ccc3c(c2)OCO3)cc(Cl)c1O", "Potency": "inconclusive: 39.8 µM [activator, single point]"}
{"smiles": "COC(=O)[C@]12C[C@H](CC(=O)N3CCN(C(=O)C4CC4)CC3)C(=O)N(Cc3ccccc3)C1=C[C@H](COCc1ccccc1)O[C@@H]2C", "Potency": "inconclusive: 7.94 µM [activator, partial curve]"}
{"smiles": "CCNC(=S)NNC(=O)c1cnccn1", "Potency": "inactive"}
{"smiles": "COc1ccc(C(=O)OC/C(O)=C(\\C#N)c2nc3ccccc3[nH]2)cc1S(=O)(=O)N1CCOCC1", "Potency": "inconclusive: 50.1 µM [activator, single point]"}
{"smiles": "C=CCC[C@H](Cc1ccc(F)cc1)C(=O)OC[C@H](C)NC(=O)[C@H](CC=C)CC(=O)N(CCO)Cc1ccccc1", "Potency": "inconclusive: 31.6 µM [activator, single point]"}
{"smiles": "Cc1ccc(NC(=O)[C@H](C)NC(=O)C2CCN(C(=O)[C@H](CC(C)C)NC(=O)OC(C)(C)C)CC2)cc1", "Potency": "inconclusive: 12.6 µM [activator, partial curve, poor fit]"}
{"smiles": "O=C(NCc1ccccc1Cl)c1ccc2c(O)c(S(=O)(=O)c3ccccc3)c(=O)[nH]c2c1", "Potency": "inactive"}
{"smiles": "COc1ccc(Cl)cc1C(=O)Nc1ccc(-c2nnc3n2CCCCC3)cc1", "Potency": "inconclusive: 5.62 µM [activator, partial curve]"}
{"smiles": "CCCCc1nc(SCC(=O)Nc2ncccn2)n[nH]1", "Potency": "inconclusive: 25.1 µM [activator, single point]"}
{"smiles": "CC(C)CC1C(=O)N(Cc2cn(Cc3ccco3)nn2)CCS(=O)(=O)N1Cc1ccc(-c2cccc(N(C)C)c2)cc1", "note": "(centres undefined)", "Potency": "inconclusive: 22.4 µM [activator, single point]"}
{"smiles": "COc1cccc(NC(=O)C2CCN(C(=O)N3CC(C)Oc4ccccc43)CC2)c1", "note": "(centres undefined)", "Potency": "inactive"}
{"smiles": "CCN(CC)C(=O)[C@H]1CC(CC(=O)NC/C=C(\\C)CCC=C(C)C)C(=O)N2CCc3c([nH]c4ccc(OC)cc34)[C@]12C", "note": "(some centres undefined)", "Potency": "inconclusive: 25.1 µM [activator, single point]"}
{"smiles": "Cc1cc2c(cc1C)C(c1cccc(F)c1)CC(=O)N2", "note": "(centres undefined)", "Potency": "inactive"}
{"smiles": "C=CCn1c(COc2ccccc2-c2ccccc2)nnc1SCC(=O)NC(=O)NCc1ccco1", "Potency": "inconclusive: 31.6 µM [activator, single point]"}
{"smiles": "Cc1c(-c2nsc(NC(=O)c3cccs3)n2)nnn1-c1ccc(Br)cc1", "Potency": "inactive"}
{"smiles": "Fc1ccc(CSc2ncnc3nc[nH]c23)cc1", "Potency": "inactive"}
{"smiles": "CC(C)[C@H](NC(=O)OC(C)(C)C)c1cc(C(=O)N[C@@H](C)c2ccccc2)c(N)s1", "Potency": "inconclusive: 17.8 µM [activator, partial curve, poor fit]"}
{"smiles": "CCCNC(=O)C(Cc1ccccc1F)NC(=O)c1ccc(C#N)cc1", "note": "(centres undefined)", "Potency": "inactive"}
{"smiles": "O=C(CCn1ccc2cc(S(=O)(=O)N3CCCC3)ccc21)NCc1cccc(Br)c1", "Potency": "inconclusive: 50.1 µM [activator, single point]"}
